Test results reported in PubChem BioAssay AID485294 (National Center for Advancing Translational Sciences (NCATS), 2010).
Screen size: about 370,000 compounds; about 150 (0.041%) were called active. The shares of active, inactive and inconclusive entries below differ from those in the screen. The call rests on the fitted dose curve; in most records, active means well fitted inhibition curve with a large enough effect; inconclusive means small, poorly fitted or top-dose-only effect; inactive means flat fitted curve, though single readings scatter. Potencies of inconclusive entries are left out as doubtful fits.

Each molecule was assayed against Beta-lactamase (Escherichia coli (strain K12)) (UniProt P00811) (assay: qHTS Inhibitors of AmpC Beta-Lactamase (assay with detergent)). Conditions: AmpC hydrolysis of nitrocefin, absorbance 480 nm, 0.01% Triton; series mostly up to 114 µM.
Outline: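 20 mM phosphate pH 7.0 + 0.01% (detergent screen) or 0.0001% Triton X-100; 5.3 nM AmpC reagent; cpd preinc 15 min RT; nitrocefin (800 uM stock) to start; A480 q20 s × 4 min; Activity was normalised to no-enzyme and no-compound control wells.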
Further: nearly all actives have a fitted effect of over 25% in size.
Potency means the concentration at half of the fitted maximal effect; tags describe the fitted curve by direction and shape.

UniProt P00811, sequence (P00811 whole entry, looked up): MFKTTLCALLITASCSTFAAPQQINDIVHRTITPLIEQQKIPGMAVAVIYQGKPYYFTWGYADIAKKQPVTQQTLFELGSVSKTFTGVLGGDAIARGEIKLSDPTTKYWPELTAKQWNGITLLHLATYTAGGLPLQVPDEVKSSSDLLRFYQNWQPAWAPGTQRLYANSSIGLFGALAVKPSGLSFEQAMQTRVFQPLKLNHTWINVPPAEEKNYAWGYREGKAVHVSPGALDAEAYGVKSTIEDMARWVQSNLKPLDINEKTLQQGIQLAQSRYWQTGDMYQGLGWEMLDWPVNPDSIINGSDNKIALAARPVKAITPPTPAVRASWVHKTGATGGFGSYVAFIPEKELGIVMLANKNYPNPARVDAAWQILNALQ

Structure (SMILES)	Potency
CC(C)(C)OC(=O)N1CCC[C@H]1C(=O)Nc1ccc(S(=O)(=O)C(F)F)cc1	inactive
CN(C)c1ccc([N+](=O)[O-])cc1C(=O)O	inconclusive [inhibitor, full curve, poor fit]
COc1ccc(/C=N/NC(=O)CSCc2ccc([N+](=O)[O-])cc2)cc1OC	inconclusive [inhibitor, full curve, poor fit]
Cc1nn(C)cc1C(=O)Nc1cc(Oc2ccc(Cl)cc2)cc([N+](=O)[O-])c1	inactive
O=C(COC(=O)c1ccc(F)cc1)NCc1ccc(F)cc1	inconclusive [inhibitor, single point]
Cc1onc(-c2ccccc2)c1C(=O)N/N=C/c1ccc([N+](=O)[O-])s1	inconclusive [inhibitor, full curve]
CCn1c(CNC(=O)c2ccc(OC)cc2)nnc1SCC(=O)Nc1cccc(C)c1	inconclusive [inhibitor, single point]
CCOc1ccc(NC(=O)CSc2n[nH]c(=O)n2-c2ccccc2)cc1	inconclusive [inhibitor, partial curve, poor fit]
Cc1ccc(S(=O)(=O)NCCc2nnc3ccc(SCC(=O)Nc4c(C)cc(C)cc4C)nn23)cc1	inactive
Cc1ccc2c(c1)C(=O)C(=O)N2CC(=O)OC(C)C	inactive
Cn1cccc1CNCCc1ccccc1F	inactive
Cc1nonc1C(=O)N/N=C/c1cc2c(cc1Br)OCO2	inactive
Cn1ncc(Cl)c1C(=O)NC(=S)Nc1sc2c(c1C#N)CCCCC2	inactive
Cc1cccc(-n2ncc3c(=O)[nH]c(SCC(=O)NCCC4=CCCCC4)nc32)c1	inconclusive [inhibitor, full curve, poor fit]
O=C(C1Cc2ccccc2CN1S(=O)(=O)c1cccs1)N1CCCCC1 (centres undefined)	inconclusive [inhibitor, single point]
CN1C(=O)N(CN2CCCCC2)C2C1N(C)C(=O)N2CN1CCCCC1 (centres undefined)	inconclusive [inhibitor, full curve, poor fit]
Cc1cccc(C)c1Nc1nnc(SCC(=O)Nc2ncc(C(F)(F)F)cc2Cl)s1	inconclusive [inhibitor, partial curve]
COc1ccc(N2CCN(C(=O)c3[nH]c4ccc(OC)cc4c3C)CC2)cc1	inconclusive [inhibitor, full curve, poor fit]
CCC1C(=O)C(C)(C)C(=O)OC1c1ccc([N+](=O)[O-])cc1 (centres undefined)	inconclusive [inhibitor, full curve, poor fit]
Cc1cc(C)c2c(=O)[nH]c(SCC(=O)N3CCCCC3)nc2n1	inconclusive [inhibitor, full curve, poor fit]
COc1ccc(OC)c(NS(=O)(=O)c2cccs2)c1	inconclusive [inhibitor, full curve]
O=C(C1CCCN(c2ncnc3c2nc2n3CCCCC2)C1)N1CCN(c2ccc(F)cc2)CC1 (centres undefined)	inactive
CCSc1nnc(-c2ccccc2N=Cc2c(C)[nH]n(-c3ccccc3)c2=O)c(=O)[nH]1	inconclusive [inhibitor, full curve, poor fit]

Structure (SMILES)	Potency
CC(C)C1S/C(=N/N=C/c2cccs2)NC1=O (centres undefined)	inconclusive [inhibitor, partial curve]
COCc1[nH]c(=S)c(C#N)cc1C(=O)OC	inactive
Cc1oc(-c2ccccc2F)nc1CS(=O)(=O)CC(=O)NCCCc1ccccc1	inconclusive [inhibitor, full curve, poor fit]
Cc1ccc(NS(=O)(=O)c2ccc(C(=O)OCC(=O)Nc3cc(C)on3)cc2)cc1	inactive
CCCCC(=O)Nc1nnc(/C=C/c2ccc(OC)cc2)s1	inconclusive [inhibitor, partial curve, poor fit]
C/C(=N\NC(=O)CNc1cccc(C)c1)c1ccc(Br)s1	inconclusive [inhibitor, single point]
COc1cc(/C=C(\C#N)c2nn(CCO)c(N)c2C#N)cc(OC)c1OC	inactive
CCN(CC)S(=O)(=O)c1cccc(-c2n[nH]c(=S)n2Cc2ccccc2)c1	inconclusive [inhibitor, partial curve]
CCc1ccccc1NC(=S)N=Nc1c(O)n(C)c2ccc(S(=O)(=O)N3CCOCC3)cc12	inconclusive [inhibitor, partial curve, poor fit]
Cc1c(C(=O)NCCC2=CCCCC2)oc2ccc(S(=O)(=O)N3CCOCC3)cc12	inconclusive [inhibitor, partial curve, poor fit]
O=C1NC(=O)C(=Cc2ccc(Sc3ccccc3)o2)C(=O)N1	inactive
CCN(N)C(=S)Nc1ccc(F)cc1	inconclusive [inhibitor, single point]
Nn1c(SCc2ccccn2)nncc1=O	inactive
CN(CC1CCCN(CCc2cccc(C(F)(F)F)c2)C1)C(=O)c1cc2ccccc2o1 (centres undefined)	inconclusive [inhibitor, partial curve, poor fit]
CCOc1ccc(N(C(C)=O)C2C=CS(=O)(=O)C2)cc1 (centres undefined)	inconclusive [inhibitor, full curve]
CCOCCCNC(=O)C(NC(=O)CNC(=O)c1ccccc1)c1ccccc1 (centres undefined)	inconclusive [inhibitor, single point]
CCOc1cc(/C=N/Nc2nn3cnnc3c3ccccc23)ccc1O	inactive
CC(C)CC(NC(=O)OC(C)(C)C)c1cn([C@@H](CCCCNC(=O)OC(C)(C)C)C(=O)N2CCN(C(=O)OC(C)(C)C)CC2)nn1 (some centres undefined)	inactive
COc1ccc(N(CC(=O)NCc2cccs2)S(=O)(=O)c2cccnc2)cc1	inconclusive [inhibitor, full curve, poor fit]
CC(=O)N1CCc2cc(Br)cc(S(=O)(=O)CCC(=O)NCc3ccc(F)cc3)c21	inactive
Cc1ccc(OCc2nnc(SC3CCc4ccccc4C3=O)n2C)cc1 (centres undefined)	inconclusive [inhibitor, partial curve, poor fit]
COc1ccc(S(=O)(=O)N2CCCCC2)cc1NC(=O)CN1C(=O)NC(C)(C2CC2)C1=O (centres undefined)	inconclusive [inhibitor, full curve, poor fit]
COc1ccc([N+](=O)[O-])cc1N(CC1CO1)S(=O)(=O)c1ccc(C)cc1 (centres undefined)	inactive

Structure (SMILES)	Potency
COP(=O)(OC)c1nc(-c2cccc3ccccc23)oc1NCCc1ccccc1	inconclusive [inhibitor, partial curve, poor fit]
Cc1nc2ccn(Cc3ccccc3)c(=O)c2cc1C(=O)N1CCN(c2ccccc2)CC1	inconclusive [inhibitor, partial curve, poor fit]
CN1CCN(c2nc3c(c(=O)n(C)c(=O)n3C)n2Cc2cccc3ccccc23)CC1	inactive
COC(=O)c1[nH]c2ccc(C)cc2c1NC(=O)CN1CCCC(C)(C)C1	inactive
C=CCSc1nnc(NC(=O)CCN2C(=O)C3CC=CCC3C2=O)s1 (centres undefined)	inconclusive [inhibitor, full curve, poor fit]
COc1cc(/C=N/Nc2nc3ccccc3s2)cc([N+](=O)[O-])c1O	inactive
CCOC(=O)c1c(NC(=O)C2C3C=CC(C3)C2C(=O)O)sc2c1CC(C)(C)OC2 (centres undefined)	inactive
CC(C(=O)O)c1ccc2c(c1)[nH]c1ccc(Cl)cc12 (centres undefined)	inconclusive [inhibitor, full curve]
COc1ccc(O)c(/C=N/NC(=S)Nc2cccc(S(=O)(=O)N(C)C)c2)c1	inconclusive [inhibitor, full curve, poor fit]
O=C(O)c1cccc(NS(=O)(=O)/C=C/c2ccccc2)c1	inconclusive [inhibitor, full curve, poor fit]
CCN(CC(=O)NC1CCS(=O)(=O)C1)S(=O)(=O)c1ccc(C)cc1C (centres undefined)	inconclusive [inhibitor, partial curve, poor fit]
Cn1nnnc1NCc1c(F)cccc1Cl	inconclusive [inhibitor, full curve, poor fit]
Cc1cc(Cl)ccc1OCC(=O)NCC(c1cccs1)N1CCOCC1 (centres undefined)	inconclusive [inhibitor, full curve, poor fit]
O=C(Nc1nc(-c2ccccn2)cs1)C1CC(=O)N(c2ccc3c(c2)OCCO3)C1 (centres undefined)	inconclusive [inhibitor, full curve]
Cc1ccc(C)n1C1CCS(=O)(=O)C1 (centres undefined)	inconclusive [inhibitor, full curve, poor fit]
CC(=O)c1ccc(NC(=O)c2sc(-n3nc(C)c(Cc4ccc5c(c4)OCO5)c3C)nc2C)cc1	inactive
CN(C)c1c(-c2ccccc2)cc(-c2ccccc2)[nH]c1=O	inactive
CC(=O)c1nn(-c2ccc(Br)cc2)cc1C(=O)c1ccco1	inconclusive [inhibitor, partial curve, poor fit]
Cc1c(C(=O)O)oc2c(F)cccc12	inactive
COc1ccc(C(=O)NCC(c2cccs2)N2CCc3ccccc32)cc1OC (centres undefined)	inconclusive [inhibitor, full curve]
CCOc1ccc(N(C(=O)Nc2ccccc2)C2=NCCC2)cc1	inactive
Cc1ccnc(NC(=O)CCC2CCCCC2)c1	inactive
CCCCn1c(N)c(N(CCOC)C(=O)CCc2ccc(OC)cc2)c(=O)[nH]c1=O	inconclusive [inhibitor, full curve]
